From US8114627 (Scripps Research, dated 2012)

Biological target: human α-thrombin (Diapharma) (human)
Assay: kinetic analysis of thrombin inhibition; the reference is desulfo-hirudin
Method: To characterize the efficacy of the expressed sulfo-hirudin as an anticoagulant, the kinetics of thrombin inhibition were determined using a fluorogenic enzyme assay based on the single progress curve method previously reported in the literature (Cha, "Tight-binding inhibitors—III. A new approach for the determination of competition between tight-binding inhibitors and substrates—inhibition of adenosine deaminase by coformycin," *Biochem Pharmacol* 25:2695-2702 (1976); Komatsu et al., "CX-397, a novel recombinant hirudin analog having a hybrid sequence of hirudin variants-1 and -3," *Biochem Biophys Res Commun* 196:773-779 (1993)). In this assay, 100 pM of either sulfo-hirudin or desulfo-hirudin was mixed with 50 µM fluorogenic substrate to which human α-thrombin was added to initiate the reaction.
The exact concentrations of hirudin and sulfo-hirudin were determined by titration against thrombin in a concentration range where 1:1 binding could be assumed. […] These thrombin inhibition kinetic constants derived from non-linear fitting of progress curves averaged over at least 3 readings with standard deviations reported are shown in the table below.

B1: sulfo-hirudin ([Leu1, Thr2]-hirudin with sulfotyrosine at position 63, expressed in E. coli) (other)
chain: LTYTDCTESGQNLCLCEGSNVCGQGNKCILGSDGEKNQCVTGEGTPKPQSHNDGDFEEIPEEYLQ
modifications: sulfotyrosine at position 63
notes: mature; It prints only the new residues Leu1 and Thr2; also called sulfated hirudin; genetically encoded sulfo-hirudin
fold higher affinity than desulfo-hirudin: 10 fold
